Data as given in PubChem BioAssay AID2675 (National Center for Advancing Translational Sciences (NCATS), 2010).
Screen size: about 280,000 compounds; about 100 (0.036%) were called active. Inconclusive results, whose numbers are uncertain, are shown with a selection of clear calls. Calls come from the whole dose curve; as a rule, active = well fitted inhibition curve with a large enough effect in the signal ratio, with a control signal flat (not every such curve was filed as active); inconclusive = small, poorly fitted or top-dose-only effect, or effect the other way, or a change in a side signal; inactive = no such curve, though single readings can be large or run the other way; the % refers to the signal ratio. Potencies beside an inconclusive call are fits to weak or partial responses and may not hold up. A note “side channel” means that the fit belongs to a control or component signal, not to the main read-out.

target: Muscleblind-like protein 1 (Homo sapiens) (UniProt Q9NR56); experiment: qHTS Assay for Inhibitors of MBNL1-poly(CUG) RNA binding; conditions: TR-FRET MBNL1-His/biotin-(CUG)12 binding, 665/545 ratio; series mostly up to 57.5 µM
Sequence of UniProt Q9NR56 (Q9NR56 whole entry, looked up): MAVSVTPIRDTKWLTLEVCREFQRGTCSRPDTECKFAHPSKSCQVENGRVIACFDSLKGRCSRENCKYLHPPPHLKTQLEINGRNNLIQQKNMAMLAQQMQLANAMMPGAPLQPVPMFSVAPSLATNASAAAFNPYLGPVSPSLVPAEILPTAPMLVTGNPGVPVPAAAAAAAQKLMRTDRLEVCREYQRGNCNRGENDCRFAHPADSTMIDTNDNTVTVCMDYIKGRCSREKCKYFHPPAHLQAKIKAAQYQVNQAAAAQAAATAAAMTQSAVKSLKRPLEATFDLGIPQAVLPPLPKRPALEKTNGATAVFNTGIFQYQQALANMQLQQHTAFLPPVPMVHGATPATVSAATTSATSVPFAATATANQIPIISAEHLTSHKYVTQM
Outline: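 Inhibition of protein-RNA binding appears as loss of TR-FRET between terbium anti-His antibody on MBNL1-His and streptavidin-XL665 on biotin-(CUG)12. Activity is normalized to buffer-only and uninhibited-complex controls.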
Potency is the fitted concentration of half-maximal effect; tags give direction and shape of the fitted curve or compound fluorescence and quenching.

Compound | Potency
Cc1nn(-c2ccccc2)c(-n2cccc2)c1C(=O)O | inconclusive: 7.94 µM [inhibitor, full curve, poor fit]
CCOC(=O)NC(NC(=S)Nc1ccccc1[N+](=O)[O-])C(Cl)(Cl)Cl (centres undefined) | inconclusive: 39.8 µM [quencher, side channel, single point]
COc1ccc(CCNC(=O)CCn2c(=O)[nH]c3cc(OC)c(OC)cc3c2=O)cc1OC | inconclusive: 8.91 µM [fluorescent, side channel, partial curve]
Clc1ccccc1/C=N/NC1=Nc2cccc3cccc1c23 | inconclusive: 8.91 µM [quencher, side channel, single point]
CCn1c(=O)n(CC)c2cc(NC(=O)CSc3ccc([N+](=O)[O-])cn3)ccc21 | inconclusive: 3.16 µM [quencher, side channel, full curve, poor fit]
CSc1ccccc1NC(=O)c1ccc([N+](=O)[O-])cc1 | inconclusive: 14.1 µM [quencher, side channel, partial curve]
COCC(=O)Nc1cccc(-c2ccc3nncn3n2)c1 | inconclusive: 17.8 µM [quencher, single point]
NC(=O)C[C@@H]1NC(=O)c2cc([N+](=O)[O-])cc(F)c2NCCCC[C@@H](C(N)=O)NC(=O)[C@H](CO)NC1=O | inconclusive: 4.47 µM [quencher, side channel, full curve]
Cc1csc(NC(=O)Nc2ccccc2[N+](=O)[O-])n1 | inconclusive: 3.16 µM [quencher, full curve]
C=CCOc1c(CNc2nccs2)cccc1OCC | inactive
CCNC(=S)Nc1ccc(Cl)c([N+](=O)[O-])c1 | inconclusive: 20 µM [quencher, single point]
Cc1cccc(NCCC(=O)c2ccc([N+](=O)[O-])cc2)c1C | inconclusive: 14.1 µM [quencher, partial curve]
Cc1ccc(Sc2cc(NCCCO)c([N+](=O)[O-])c3nonc23)cc1 | inconclusive: 0.794 µM [quencher, side channel, full curve, poor fit]
CN1CCN(C(=O)c2ccc(S(=O)(=O)c3ccc(Br)cc3)cc2)CC1 | inactive
COC(=O)c1ccc(Cn2nc([N+](=O)[O-])c(Br)c2C)cc1 | inconclusive: 17.8 µM [quencher, side channel, partial curve]
C=C(C)[C@@H]1CC[C@]2(C(=O)O)CC[C@]3(C)C(CCC4[C@@]5(C)CC[C@H](O)C(C)(C)C5CC[C@]43C)C12 (some centres undefined) | inactive
C=CCOC(=O)/C(=C\c1ccc(OC)cc1)NC(=O)c1ccco1 | inactive
O=[N+]([O-])c1cccc(N=Cc2sc3ccccc3c2O)c1 | inactive
COC(=O)C1CCN(Cc2cc(=O)oc3cc(C)c(Cl)cc23)CC1 | inactive
CCCCCNC(=O)c1ccc(NS(=O)(=O)c2ccc3[nH]c(=O)[nH]c3c2)cc1 | inconclusive: 20 µM [quencher, partial curve]
O=C(O)COc1c(Cl)cc(/C=C2\NC(=O)NC2=O)cc1Br | inconclusive: 25.1 µM [quencher, side channel, partial curve]
CCOc1ccc(/C=C2\SC(=S)N(CCCC(=O)NCCCN3CCOCC3)C2=O)cc1 | inconclusive: 7.08 µM [quencher, side channel, partial curve]

Compound | Potency
Cc1ccc(NC(=O)N2CCCC2C(=O)Nc2ccc(-n3cnnn3)c(C)c2)cc1 (centres undefined) | inconclusive: 1.12 µM [fluorescent, side channel, full curve, poor fit]
COc1ccc2oc(=O)c(C(=O)NCc3ccco3)cc2c1 | inconclusive: 15.8 µM [quencher, side channel, partial curve]
O=C(Nc1nc2ccccc2[nH]1)C1CCCC1 | inactive
Cc1ccc(NC(=S)N2CCN(Cc3ccccc3)CC2)c(C)c1 | inconclusive: 3.55 µM [inhibitor, full curve]
CCCCS/C(=C(/C#N)C(N)=O)c1cc2c([nH]1)CCCC2 | inconclusive: 17.8 µM [quencher, side channel, partial curve]
CCCN1CCc2c(sc(NC(=S)NC(=O)c3ccccc3)c2C#N)C1 | inconclusive: 14.1 µM [quencher, side channel, partial curve]
NNc1nnc2c3cc(F)ccc3n(Cc3ccccc3)c2n1 | inconclusive: 25.1 µM [quencher, side channel, single point]
COc1ccc(-c2cc(C(=O)Nc3c(C)nn(Cc4ccccc4)c3C)no2)cc1 | inconclusive: 100 µM [inhibitor, single point]
O=[N+]([O-])c1ccc(N/N=C2/CCCCC2c2ccccn2)c([N+](=O)[O-])c1 (centres undefined) | inconclusive: 11.2 µM [quencher, side channel, partial curve]
CCOc1ccc(NC(=O)CCNS(=O)(=O)c2ccc3c(c2)CC(C)N3C(C)=O)cc1 (centres undefined) | inconclusive: 0.708 µM [fluorescent, side channel, single point]
Cc1ccccc1NC(=S)NC(=O)C1CCCCC1 | inactive
Cc1cc2ncn(-c3ncnc4scc(-c5ccccc5)c34)c2cc1C | inactive
Cc1ccccc1NC(=O)CSc1nc(N)c(C#N)cc1C#N | inconclusive: 39.8 µM [fluorescent, single point]
COc1cc(OC)cc(C(=O)Nc2cccc(C(C)=O)c2)c1 | inactive
Cc1cc(C(=O)N/N=C/c2ccc(-c3cccc([N+](=O)[O-])c3)o2)n[nH]1 | inconclusive: 5.62 µM [quencher, side channel, partial curve]
Cc1ccc(/C(O)=C2\C(=O)C(=O)N(Cc3cccnc3)C2c2ccccc2[N+](=O)[O-])cc1 (centres undefined) | inconclusive: 11.2 µM [quencher, side channel, partial curve]
CCc1c(C)nc(SCC(=O)N2CCN(c3ccccc3)CC2)[nH]c1=O | inactive
CC(=O)Nc1ccc(-c2nc3ccccc3c(=O)o2)cc1 | inactive
Cc1ccc(-c2cc(C(=O)OCC(=O)N(C)C3CCS(=O)(=O)C3)c3ccccc3n2)o1 (centres undefined) | inconclusive: 15.8 µM [quencher, side channel, partial curve]
S=C(Nc1ccc2nc(-c3ccccn3)c(-c3ccccn3)nc2c1)N1CCCCCC1 | inconclusive: 11.2 µM [quencher, side channel, partial curve]
O=[N+]([O-])c1c(NCCCO)cc(Sc2nc3ccccc3s2)c2nonc12 | inconclusive: 1.58 µM [quencher, side channel, full curve]
O=C(O)c1ccccc1SC1CC(=O)N(c2ccc3c(c2)OCO3)C1=O (centres undefined) | inactive

Compound | Potency
CCOC(=O)C(=Cc1ccc(Br)cc1)C(=O)OCC | inactive
Cc1cc(C)n(CCCN2C(=O)c3cccc4cccc(c34)C2=O)n1 | inconclusive: 12.6 µM [quencher, side channel, partial curve]
CC(C)(C)OC(=O)N/N=C\c1ccc([N+](=O)[O-])s1 | inconclusive: 10 µM [quencher, side channel, partial curve]
Cc1c(Cc2ccccc2)c(=O)oc2c(O)c(O)ccc12 | inactive
O=[N+]([O-])c1cc(C(F)(F)F)cc([N+](=O)[O-])c1N1CCCNCC1 | inconclusive: 14.1 µM [quencher, side channel, partial curve]
O=C(Cn1ncc(Cl)c(Cl)c1=O)N1CCN(Cc2ccccc2)CC1 | inactive
Cc1ccc(S(=O)(=O)Nc2ccccc2C(=O)NCC2CCCO2)cc1 (centres undefined) | inactive
CSCCC(NC(=O)OCc1ccccc1)C(=O)O (centres undefined) | inconclusive: 39.8 µM [inhibitor, single point]
O=C(c1ccc(N2CCCCC2)c([N+](=O)[O-])c1)N1CCN(c2ccccn2)CC1 | inconclusive: 31.6 µM [quencher, side channel, single point]
CCOC(=O)c1c(NC(=O)CSc2nnc(-c3ccco3)o2)sc(C)c1C | inactive
Cc1nc2ccccc2c(=O)n1/N=C/C=C/c1ccccc1 | inconclusive: 17.8 µM [quencher, side channel, partial curve]
CCOc1cccc(NC(=O)CSc2sc3c(O)cc(=O)[nH]c3c2C#N)c1 | inconclusive: 20 µM [quencher, side channel, partial curve]
COc1cccc(/C=N/Nc2nccnc2Cl)c1O | inconclusive: 1.78 µM [quencher, side channel, full curve]
Cc1cccc(COc2ccc(/C=N/NC(=O)c3nnn(-c4nonc4N)c3C)cc2)c1 | inactive
O=C1C(Nc2cccc(O)c2)=C(N2CCCCC2)C(=O)c2ccccc21 | inconclusive: 17.8 µM [quencher, side channel, partial curve]
Cn1cc(C=C2C(=O)OC3(CCCCC3)OC2=O)c2ccccc21 | inconclusive: 15.8 µM [quencher, side channel, partial curve]
CN(C)CCCNc1c2ccccc2nc2ccccc12 | inconclusive: 31.6 µM [quencher, side channel, partial curve]
CCOC(=O)C1(Cc2cccc(OC)c2)CCN(C/C=C/c2ccccc2)CC1 | inconclusive: 10 µM [inhibitor, single point]
Cc1ccc(NC(=O)CCn2c(=O)[nH]c3ccsc3c2=O)cc1C | inactive
CCOc1ncccc1C(=O)NCCN1C(=O)S/C(=C/c2cccs2)C1=O | inconclusive: 3.16 µM [quencher, partial curve]
